Assay results published in a compilation of properties of binary mixtures (doi:10.1021/acs.jced.1c00349).
Some of these densities may be calculated back from excess volumes.

Assay: xn = mol fraction of the nth substance listed
Details: 100 kPa

CC(=O)[O-].CC[n+]1ccn(C)c1 + O
Details | mass density [kg/m3]
298.15 K, x1 = 0.0499 | 1041
298.15 K, x1 = 0.1515 | 1089
298.15 K, x1 = 0.1944 | 1096
298.15 K, x1 = 0.2487 | 1103
298.15 K, x1 = 0.2966 | 1104
298.15 K, x1 = 0.3896 | 1104
298.15 K, x1 = 0.4844 | 1103
298.15 K, x1 = 0.5796 | 1102
298.15 K, x1 = 0.6809 | 1101
298.15 K, x1 = 0.7657 | 1100
298.15 K, x1 = 0.8622 | 1099
298.15 K, x1 = 0.946 | 1098
303.15 K, x1 = 0.1055 | 1071
303.15 K, x1 = 0.1944 | 1092
303.15 K, x1 = 0.2487 | 1099
303.15 K, x1 = 0.2966 | 1101
303.15 K, x1 = 0.3896 | 1101
303.15 K, x1 = 0.5796 | 1099
303.15 K, x1 = 0.7657 | 1097
303.15 K, x1 = 0.946 | 1095
308.15 K, x1 = 0.0499 | 1036
308.15 K, x1 = 0.1055 | 1067
308.15 K, x1 = 0.1515 | 1082
308.15 K, x1 = 0.2966 | 1098
308.15 K, x1 = 0.3896 | 1098
308.15 K, x1 = 0.4844 | 1097
308.15 K, x1 = 0.5796 | 1096
308.15 K, x1 = 0.6809 | 1095
308.15 K, x1 = 0.7657 | 1094
308.15 K, x1 = 0.946 | 1092
313.15 K, x1 = 0.0499 | 1033
313.15 K, x1 = 0.1055 | 1064
313.15 K, x1 = 0.1515 | 1078
313.15 K, x1 = 0.2966 | 1095
313.15 K, x1 = 0.3896 | 1095
313.15 K, x1 = 0.4844 | 1094
313.15 K, x1 = 0.6809 | 1092
313.15 K, x1 = 0.7657 | 1091
318.15 K, x1 = 0.0499 | 1031
318.15 K, x1 = 0.1055 | 1061
318.15 K, x1 = 0.1515 | 1075
318.15 K, x1 = 0.1944 | 1082
318.15 K, x1 = 0.2487 | 1090
318.15 K, x1 = 0.2966 | 1092
318.15 K, x1 = 0.3896 | 1092
318.15 K, x1 = 0.4844 | 1091
318.15 K, x1 = 0.7657 | 1088
318.15 K, x1 = 0.8622 | 1087
318.15 K, x1 = 0.946 | 1086
323.15 K, x1 = 0.2487 | 1086
323.15 K, x1 = 0.2966 | 1089
323.15 K, x1 = 0.3896 | 1089
323.15 K, x1 = 0.4844 | 1088
323.15 K, x1 = 0.5796 | 1087
323.15 K, x1 = 0.6809 | 1086
323.15 K, x1 = 0.7657 | 1085
328.15 K, x1 = 0.0499 | 1024
328.15 K, x1 = 0.1515 | 1068
328.15 K, x1 = 0.1944 | 1075
328.15 K, x1 = 0.2966 | 1086
328.15 K, x1 = 0.3896 | 1086
328.15 K, x1 = 0.4844 | 1085
328.15 K, x1 = 0.5796 | 1084
328.15 K, x1 = 0.6809 | 1083
328.15 K, x1 = 0.8622 | 1081
328.15 K, x1 = 0.946 | 1080
333.15 K, x1 = 0.0499 | 1019
333.15 K, x1 = 0.1055 | 1051
333.15 K, x1 = 0.1515 | 1065
333.15 K, x1 = 0.1944 | 1072
333.15 K, x1 = 0.2487 | 1080
333.15 K, x1 = 0.2966 | 1082
333.15 K, x1 = 0.3896 | 1083
333.15 K, x1 = 0.4844 | 1082
333.15 K, x1 = 0.6809 | 1080
333.15 K, x1 = 0.7657 | 1079
333.15 K, x1 = 0.946 | 1077
338.15 K, x1 = 0.0499 | 1015
338.15 K, x1 = 0.1055 | 1047
338.15 K, x1 = 0.1515 | 1061
338.15 K, x1 = 0.1944 | 1069
338.15 K, x1 = 0.2487 | 1077
338.15 K, x1 = 0.3896 | 1079
338.15 K, x1 = 0.4844 | 1079
338.15 K, x1 = 0.5796 | 1078
338.15 K, x1 = 0.7657 | 1076
338.15 K, x1 = 0.946 | 1074
343.15 K, x1 = 0.0499 | 1008
343.15 K, x1 = 0.1055 | 1044
343.15 K, x1 = 0.1944 | 1065
343.15 K, x1 = 0.2487 | 1074
343.15 K, x1 = 0.2966 | 1076
343.15 K, x1 = 0.3896 | 1076
343.15 K, x1 = 0.4844 | 1076
343.15 K, x1 = 0.5796 | 1075
343.15 K, x1 = 0.7657 | 1073
348.15 K, x1 = 0.0499 | 1010
348.15 K, x1 = 0.1055 | 1041
348.15 K, x1 = 0.1515 | 1054
348.15 K, x1 = 0.1944 | 1061
348.15 K, x1 = 0.2487 | 1070
348.15 K, x1 = 0.2966 | 1073
348.15 K, x1 = 0.3896 | 1073
348.15 K, x1 = 0.6809 | 1071
348.15 K, x1 = 0.7657 | 1070
348.15 K, x1 = 0.8622 | 1069
348.15 K, x1 = 0.946 | 1068
